# From the RNAGym collection of RNA variant scans (doi:10.1073/pnas.2313332121)
# This sample is rich in variants without activity.
# B1: TPR 5TU (parent)
# chain: GGAUCUUCUCGAUCUAACAAAAAAGACAAAUCUGCCACAAAGCUUGAGAGCAUCUUCGGAUGCAGAGGCGGCAGCCUUCGGUGGCGCGAUAGCGCCAACGUUCUCAACUAUGACACGCAAAACGCGUGCUCCGUUGAAUGGAGUUUAUCAUG
# Variants of: B1
# Assay: polymerase ribozyme fitness, log enrichment relative to wild type (log ratio); higher = more active; in vitro selection for triplet polymerase activity
# In short: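 A single round of triplicate in vitro selection, including frozen incubation at −7 °C, was applied to PCR-built, transcribed mutant libraries of each subunit of a heterodimeric triplet polymerase ribozyme. Illumina sequencing of input and output libraries retained genotypes with ≥10 input reads and ≥1 read per output. Fitness is the base-2 logarithm of genotype enrichment divided by wild-type enrichment, from inverse-variance-weighted replicate averages.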
row,Variant,polymerase ribozyme fitness (log ratio)
1,G25U G50C U56A G65U U146C,≤ -4.2
2,G25U U55G A122U,-3.1
3,G25U G58C G62A A73G G88C C96G,≤ -4.2
4,A24U G34C C79G C87U A137U,≤ -4.2
5,G25U C79A G88A A110U,≤ -4.2
6,G25U G48C U102C G117A G133C U135A,≤ -4.2
7,A24U C79U U102G C118U A119G G140A,≤ -4.2
8,G25C A29C U45A U56A G70A A73C G88C A115G G152A,≤ -4.2
9,G25A A41G G68C G81U C93A G126U U151A,≤ -4.2
10,G25U G46A C87U G92U C114U,≤ -4.2
11,G25U C93A,≤ -4.2
12,G25U A26C C27U G83C U109A,≤ -4.2
13,A24U U44C G84U G143A,≤ -4.2
14,G25A A26C G84A A106G C123A C132G,≤ -4.2
15,G25A C76U C87A A110G A120G,≤ -4.2
16,G25C C85U A89U U135G,≤ -4.2
17,A24U G80U A138G,≤ -4.2
18,G25C A60U C93A C95G A137G,≤ -4.2
19,A24U G46C G83U G84C C95G A97G A122U G140C,≤ -4.2
20,G25C A37C G94C C123G G141A,≤ -4.2
21,A24U G25U A28U G34U,≤ -4.2
22,A24U U31G A52C G65A G84C C87U A119G,≤ -4.2
23,G25C A26C,-2.94
24,G25C C87A G100U,≤ -4.2

row,Variant,polymerase ribozyme fitness (log ratio)
1,G25U G92A,≤ -4.2
2,A24U C72U G84U C118U A142G,-3.98
3,A24U C38G C57G G83C A91U C105A C149A,≤ -4.2
4,A26C A30U A41G A52U G124A,≤ -4.2
5,G25U A49G G58C G83A A138U U144A,≤ -4.2
6,G25U A47G C79A G84C C99U U109G C116U,≤ -4.2
7,A24U C72A C85G C87U A137G,≤ -4.2
8,A24U C27U C51A G92A A113U,≤ -4.2
9,A24U C27A G83A A89U C114U G143C,≤ -4.2
10,A24U G50U U56G G58U C76U A122G,-4.1
11,A26C C27G C63U A73U C93A G128U,≤ -4.2
12,G25A C93U U104G A147C,≤ -4.2
13,A26C C93U C129A U151C,≤ -4.2
14,G25C U31C C32G U55A C75G C76U C79A A115G A120C C129A,≤ -4.2
15,G25C A39U U44C A91G C95U,≤ -4.2
16,G25U C103G,-3.2
17,A24U C36A A49C G50A G86U C93A,≤ -4.2
18,G25U A64U C87G G143U,≤ -4.2
19,A24U G58U A106U U139C U145G,≤ -4.2
20,A24U U31G A41C G140U U151G,≤ -4.2
21,A24U C93A G112A C114U C116G A119G,≤ -4.2
22,G25U G65C U109G A121C,≤ -4.2
23,A24U C36G U44G C63U C75U G84U C93G C118A,≤ -4.2
24,A24U G136U,-2.44

row,Variant,polymerase ribozyme fitness (log ratio)
1,G25A U33A G83C A91U G94A A121U C131U,≤ -4.2
2,G25A G94C A113C A142C,≤ -4.2
3,A26C A28U A39C A73U G88A C95U C108G G128U G136A,≤ -4.2
4,A24U U55A A91U C105U,≤ -4.2
5,G25U C36U U61G G65C A73G C96A U127G G143C,≤ -4.2
6,A24U G58U G70C G141U A147C,≤ -4.2
7,A24U U33C C93A C116G A137C,≤ -4.2
8,A24U U53A U56G C57U A91U,≤ -4.2
9,A24U U53A G58C U61A A91G C149U,≤ -4.2
10,A24U C93U C118U A121G,-1.37
11,G25U C27G A52G C85A,≤ -4.2
12,G25C A28G G80C G83A,-4.19
13,A26C A60U A107C A115G,≤ -4.2
14,G25U C51G G94C A106G C118G A147C,≤ -4.2
15,A24U C131U,2.4
16,A24U G58C G62C A115C G140U,≤ -4.2
17,G25U A29U C43A A64U C93U C131U,≤ -4.2
18,A26C C51U A52C U55A A107G C123U,≤ -4.2
19,G25C A41C A47C G83U A89U A121C C125G A142C C149G A150U G152A,≤ -4.2
20,A26C A66C G81C G83C,-4.1
21,A24U C43U A49C U82G C85U U90C A97C U135G U139C G140U,≤ -4.2
22,A26C A40G U61A A66C C72A C79G,≤ -4.2
23,A26C A52U G86U C99G A138G A150U,≤ -4.2
24,G25U C95U C149G,≤ -4.2

row,Variant,polymerase ribozyme fitness (log ratio)
1,A24U C149G,-3.88
2,A26C A28U A47C,≤ -4.2
3,A26C A49G G50C A89U G92U U134C,≤ -4.2
4,G25C G88A C95U C105U C116A G136U G143A,≤ -4.2
5,A24U G59U C87U G128A G140U U151C,≤ -4.2
6,G25C G50C G65U A89C A91C G126A,≤ -4.2
7,G25C C79A G84U A97C,≤ -4.2
8,A24U C93A C132A,≤ -4.2
9,G25C C35G G59A A91U G140C,≤ -4.2
10,A26C A64G G83U C85G A115G,≤ -4.2
11,A26C A30G,≤ -4.2
12,G25U C54G G74A C96A A138C,≤ -4.2
13,A24U C87U U109G U139A U148A U151G,≤ -4.2
14,G25U C69G C85U G128A,≤ -4.2
15,A24U C54G G59C G71U U77C C129G U144G,≤ -4.2
16,A26C A52C U55A G58C C96A A138C U139A A142C,≤ -4.2
17,A24U G84A G94U C96A A121U G126U U135A,-4.1
18,G25C U31A C72G U130G A147U A150C,≤ -4.2
19,A26C A41G U77G,≤ -4.2
20,G25U G59U G92C A138U,≤ -4.2
21,G25U G48C G84A U90G C99G U146C,≤ -4.2
22,A24U U33C A47U C93G,≤ -4.2
23,G25C C75U A91G C99A G124U U134A,≤ -4.2
24,G25C U33G G83U G124C A137G U139A,≤ -4.2

row,Variant,polymerase ribozyme fitness (log ratio)
1,A24U U45G G68C U77A C87U C96A G124U,≤ -4.2
2,A26C C93U G128U,≤ -4.2
3,G25U A52C C87A U90G A142G,≤ -4.2
4,G25C G48C A66G C93A,≤ -4.2
5,G25U C76G C96A G140U G141A,≤ -4.2
6,G25C C27U C72U G81A G84A C95G A142U,≤ -4.2
7,G25U G42A C87G,≤ -4.2
8,A26C C63U C85A A120U,-3.53
9,A26C C93G C123U,≤ -4.2
10,A24U A64U U104A A122U,≤ -4.2
11,G25C A49C U56A C85U G143U,≤ -4.2
12,A24U C51U C57A C63U C93A A107C C125A,≤ -4.2
13,A24U G84A C87U A97U A120C G143A U144G,≤ -4.2
14,A24U U56A G62C,-1.06
15,G25U A37C A64G G84A C99A U102G,≤ -4.2
16,A26C A41C A49C G62C A138G,≤ -4.2
17,G25C C69A C76A C85U C131U,≤ -4.2
18,G25U U56A G84U C95A C96U A119C G141U U148C C149A,≤ -4.2
19,G25U G83A C95A A138U U139C,≤ -4.2
20,A24U U55A G58A A60G A64G C93G U101G C123A,≤ -4.2
21,A24U G50C C57A A73G G128U,≤ -4.2
22,A26C C79A C87A U134C A150U,≤ -4.2
23,G25U C54A G68C G86U C103G G133A A142C G152A,≤ -4.2
24,A24U G59A C93G G94A U104G A106U C118U,≤ -4.2

row,Variant,polymerase ribozyme fitness (log ratio)
1,A24U C32A C54A C76G G83A A107C C114A,≤ -4.2
2,G25C A28U G42A C96G U109G A122C U134A U139A U144C,≤ -4.2
3,A24U C51U C79A G94A G141U,≤ -4.2
4,A24U C51A U56A G71U G88C U102C,≤ -4.2
5,G25U C85G,-3.79
6,G25C A49G C54U A64G A107G G141U,≤ -4.2
7,A26C C51U A66G A97G U101G U144G,≤ -4.2
8,A24U U61A C76A A98G C108G,≤ -4.2
9,A24U G25C A49C G81C A91G A98U,≤ -4.2
10,A24U C27U A29U A52C U55A U111C A120G,≤ -4.2
11,A26C C93G U139G G140U,-4.11
12,G25C A26G G46U A91C,≤ -4.2
13,A26C G46C C132G,≤ -4.2
14,A24U C35A U55G G65A G70A G84A G136A,≤ -4.2
15,G25A C27U U45G A49C A91U U101G C118A,≤ -4.2
16,G25C C38U A73U G94U C96G C116G,≤ -4.2
17,G25U A52C C63U G88C U127C,≤ -4.2
18,G25C A26G A41C C85G C131G,≤ -4.2
19,A26C G46A C54U U56A G92C C95U C99G A115U U135C,≤ -4.2
20,A24U C32G U55G U78A U104G,≤ -4.2
21,A24U U31G G92U A107C U144A,≤ -4.2
22,G25U G46C G50C A66G U90C G100C U104A U146C G152A,≤ -4.2
23,A26C C32A U53G U101A A107G,≤ -4.2
24,A24U C87A G88A,≤ -4.2

row,Variant,polymerase ribozyme fitness (log ratio)
1,G25U A26U C32U U90A C96A A120G G126U,≤ -4.2
2,G25A A41G U55A C96U C108U,≤ -4.2
3,G25U C85U A91G G92C A107U U146A,≤ -4.2
4,G25U C51A C75U A89C C93U A121G C123U A137G G143U,≤ -4.2
5,G25U C36U C72G,≤ -4.2
6,A24U U55A C85A A115U G133U,≤ -4.2
7,G25U C36U A41C C76U C123G U144G U145A,≤ -4.2
8,G25U A29U C38A A60C U61A C69G G92A,≤ -4.2
9,G25C A30U U78C C96G,-3.97
10,A24U U77A G92A C125G,≤ -4.2
11,A24U G46C A73G C87U G92C,-3.37
12,A24U C85G C96U C114U G141C,≤ -4.2
13,A26C C96A A120G G124U,-2.02
14,G25U A138C,≤ -4.2
15,G25A A28U A41U A66U G83U U111G C118U,≤ -4.2
16,G25C C87G A98U G100A,≤ -4.2
17,A24U C38A G50U U55A U61G G68C G84U G141A U151G,≤ -4.2
18,A24U U82A C96G,0.476
19,A26C A49C C85U C96U C99G,≤ -4.2
20,A24U U44A G71A U90C G117U C118U U134C G136A,≤ -4.2
21,G25U G34U A47C A89G,≤ -4.2
22,G25U G50A G92U G117U A150C,≤ -4.2
23,G25U C57G G65U C87A C95A C108G,≤ -4.2
